Experimental data published in the RNAGym collection of RNA variant scans (doi:10.1073/pnas.2313332121).
This sample is rich in variants without activity.

B1: TPR 5TU (parent)
chain: GGAUCUUCUCGAUCUAACAAAAAAGACAAAUCUGCCACAAAGCUUGAGAGCAUCUUCGGAUGCAGAGGCGGCAGCCUUCGGUGGCGCGAUAGCGCCAACGUUCUCAACUAUGACACGCAAAACGCGUGCUCCGUUGAAUGGAGUUUAUCAUG

Variants of: B1
Test: polymerase ribozyme fitness, log enrichment relative to wild type (log ratio); higher = more active; in vitro selection for triplet polymerase activity
Method in brief: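 Fitness is a logarithmic measure of how a genotype enriched relative to the wild type, with replicate averages weighted by inverse variance. The logarithm uses base 2, and enrichment came from Illumina sequencing of input and output libraries. Those libraries were PCR-built, transcribed mutants of each subunit of a heterodimeric triplet polymerase ribozyme, passed through one triplicate in vitro selection round that included frozen incubation at −7 °C, gel excision of extended constructs and streptavidin-bead capture. Genotypes were kept only if they had ≥10 input reads and ≥1 read per output.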

Polymerase ribozyme fitness (log ratio), ≤ -4.2:
GGAUCUUCUCGAGCUAACAAAAAAGAGAAAUCUGCCACACAGCUUGAGAGCAUCUUCGGAUGCAGAGGCGGCAGCCUUCGGUGGCGCGUUAGCGACAACGUUCUCAACUAUGACACGCAAUACGCGUGCUCCGUUGAAUGGAGUUUAUCAUG [U13G C27G A40C A89U C95A A121U]
GGAUCUUCUCGAGCUAACAAAAAAGACAAAUCUGCCACUAAGCUUGAGAGCAUCUUCGGAUGCAGAGGCGGCAGCGUUCGGUGGCGCGAUAUCGCCAACGUUCUCAAGUAUGACACGCAAAACGCGGGCUCCGUUGAAUGGAGUAUACCAUG [U13G A39U C76G G92U C108G U127G U145A U148C]
GGAUCUUCUCGAGCUAACAAAAAAGAGAAAUCUGCCACAAAGCUUGAGAGCAUCUUCGGAUGCAGAGGCGGCAGCCUUCCGUGGCGCGAUAGCGCCAACGUUGUCCACUAUGACUCGCAAAACGCGUGCUCCGUUGGAUGGAGUUUAUCAUG [U13G C27G G80C C103G A106C A115U A137G]
GGAUCUUCUCGAGCUAACAAAAAAGACAAAUGUGCCACAAAGCUUGAGUGCAUCUUCGGAUGCAGAGGCGGCAGCCUUCGGUUGCUUGAUAGCGCCAACGUUAUCAACUAUGACACGCAAAACGCGUGCUCCGUUGAAUGGAGUUUAUCGUG [U13G C32G A49U G83U G86U C87U C103A A150G]
GGAUCUUCUCGAGCUAAUAAAAAAGACAAAUCUGCCACAAAGCUUGAGAGCAACUACGGAUGCAGAGGCGGCAGCCUUCGGUGGAGCGAUAGUGCCUACGUUCUCAACUAUGACACGCAAAACGCGUGCUCCGUUGAAUGGAGUUUAUCAUG [U13G C18U U53A U56A C85A C93U A97U]
GGAUCUUCUCGAGCUAACAAAAAAGACAAAUCUGCCACAAAGCUUGAGAGUAUCUUCGGAUGCAGAGGCGGCAGCCUUCGGUGGCACGAUAGCGCCAACGUUGUCAACUAUGACACGCAAAACGCGUGCUCCGUUGAAUGGAGUUUAUCAUG [U13G C51U G86A C103G]
GGAUCUUCUCGAGCUAACAAAAAAGACAAAUCUGCCACAAAGCUUGAGAGCCUCUUCGGAUGCAGAGGCGGCAGCCUUCGGUGGGUCGAUAGCGCCAACGUUCUCAACUAUGACACGCAAAACGCGUGGUCCGUUGAAUGGAGUUUAUCAUG [U13G A52C C85G G86U C129G]
GGAUCUUCUCGAGUUAACAAAAAAGACAAAUCUGCCACAAAGCUUGAGAGCGUCUUCGGAUGCAGAGGCGGCAGCCUUCGGUGGCGCGAUACCGCCAACGUUCUCAACUAUGACACGCAAAACGCGUGCUCCGUUGAAUGGAGUUUAUCAUG [U13G C14U A52G G92C]
GGAUCUUCUCGAGCUAACAAAAAAGACAAAUCUGCCAUAAAGCUUGAGAGCAUCUUAGGAAGCAGAGGUGGCAGCCUUCGGUGGCGCGAUAGCGCCAACGUUCCCAACUAUGACACGCAAAACGCGUGCUCCGUUGAAUGGAGUUUAUCAUG [U13G C38U C57A U61A C69U U104C]
GGAUCUUCUCGAGCUAACAAAAAAGACAAAUCUGCCAAAAAGCUUGAGAGCAUCUUCGGAUGCAGAGGCGGCAGCCUUCGGUGGCGCGAUAGGGCCAACGUUCUCAACUAUGACAGGCAAAGCGCGUGCUCCGUUGAAUGGAGUUUAUCAUG [U13G C38A C93G C116G A122G]
GGAUCUUCUCGAGCUAACAAAAAAGACAAAUCUGCCACAAAGCUUGAGCGCAUCUUCGGAUGCAGAGGCGGCAGCCUUCGGUGGCGCGAUAGCGCCAACGUUCUCAACUAUGACACGCAAAACGCGUGCUCCGUUGAAUGGAGUUUAUCAUG [U13G A49C]
GGAUCUUCUCGAGCUAACAAAAAAGACAAAUCUGCCACAAAGCUUGAGAGCAUCUUCGGAUGCAGAGGCGGCAGCCUUCGGUGGCGCGAUAGCGCCAACGUUCUCAACUAUGACACGCAAAACGCGUGCUCCGUUGUAUGGAGUUUAUCAUG [U13G A137U]
GGAUCUUCUCGAGCUAACAAAAAAGACAAAUCUGCCACAAAGCUUGAGAGCAUCUUAUGAUACAGAGGCGGCAGCCUUCGGUGGCGCGAUAGUGCCUACGUUCUCGACUAUGACACGCAAAACGCGUGCUCCGUUGAAUGGAGUUUAUCAUG [U13G C57A G58U G62A C93U A97U A106G]
GGAUCUUCUCGAGCUAACAAAAAAGACAAAUCUGCCACAAAGAUUGAGAGCAUCCUCGGAAGCAGAGGCGGCAGCCUUCGGUGGCGCGAUAGCGCCGACGUUCUCAACUAUGACACGCAAAACGCGUGCUCCGUUGAAUGGAGUUUAUCAUG [U13G C43A U55C U61A A97G]
GGAUCUUCUCGAGUUAACAAAAAAGACAAAUCUGCCACAAAGCUUGAGAGCUUCUACGGAUGCAGAGGCGGCAGCCUUCGGUGGCGCGAUAUCGCCAACGUUCUCAACUAUGACACGCAAAACGCGUGCUCCGUUGAAUGGAGUUUAUCAUG [U13G C14U A52U U56A G92U]
GGAUCUUCUCGAGCUAACAAAAAAGACAAAUAUGCCACAAAGCUUGAGAGCAUCUUCGGAUGCAGAGGCGGCAGCCUUCGGUGGCCCGAUAGCGCCAACGUUCUCAGCUAUGACACGCAAAACGGGUGCUCCGUAGAAUGGAGUUUAUCAUG [U13G C32A G86C A107G C125G U135A]
GGAUCUUCUCGAGCUAACAAAAAAGACAAAUCUGCCACAAAGCUUGAGCGCAUCUUCGGAUGCAGAGGCGGCAGCCUUCGGUGGCGCGAUAGCCCCAACGUUCUCAACUAUGACACGCAAAACGCGUGCUCCAUUGAAUGGAGUUUAUCAUG [U13G A49C G94C G133A]

Polymerase ribozyme fitness (log ratio), -1.43:
GGAUCUUCUCGAGGUAACAAAAAAGACAAAGCUGCCACAAAGCUUGAGAGCAUCUUCGGAUGCAGAGGCGGCAGCCUUCGGUGGCGCGAUAGCGCCAACGUUCUCAACUAUGACACGCAAAACGCGUGCUCCGUUGAAUGGAGUUUAUCAUG [U13G C14G U31G]

Polymerase ribozyme fitness (log ratio), -1.5:
GGAUCUUCUCGAGCUAACAAAAAAGACAAAUCUGCCACAAAGCUUGAGAGCAUCUUCGGAUGCAGAGGCGGCAGCCUUCGGUGGCGCGAUAGCGCCAACGUUCUCGACUAUGACACGCAAAACGCGUGCUCCGUUGAAUGGAGUUUAUCAUG [U13G A106G]
